The campaign covered roughly 340,000 compounds. About 12,000 (3.5%) were called active. Inconclusive results, whose numbers are uncertain, are shown with a selection of clear calls. Calls follow the shape of the dose curve; as a rule, active = well fitted inhibition curve with a large enough effect; inconclusive = small, poorly fitted or top-dose-only effect, or another doubt; inactive = no such curve, though single readings can be large or run the other way. Potencies of inconclusive entries are left out as doubtful fits. The source holds several records for some structures; these can differ, active in one and inactive in another.
Test: qHTS Assay for Inhibitors of Hepatitis C Virus (HCV)
Details: Huh7.5.1 HCVcc-Cre (HCVcc is cell-culture hepatitis C virus) infection, luciferase reporter, 44 h; activity change, negative = inhibition: at 41.8 µM (top of the series)
In short: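 Antiviral activity was scored by luciferase reporter output from cells infected with HCVcc-Cre (~0.5 moi) in presence of compound, 44 h infection period, cells seeded 1,000/well 4 h prior.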
% is scaled to controls: 0 for no effect and ±100 for the full control effect; potency is read from the fitted curve at half-maximal effect; tags tell the direction and shape of the fitted curve.

Compound	Potency	activity change, negative = inhibition
CC(C)c1nnc(NC(=O)c2nc(S(=O)(=O)Cc3ccccc3)ncc2Cl)s1	inconclusive [inhibitor, single point]	
O=C(Cn1cc(SCc2ccc(F)cc2)c2ccccc21)N1CCOCC1		inactive: 5.3%
Cc1onc(-c2c(Cl)cccc2Cl)c1C(=O)N[C@@H]1C(=O)N2[C@@H]1SC(C)(C)[C@@H]2C(=O)O	active: 0.501 µM	
Cc1cccc(Nc2nc(-c3c(C)nc4ccccn34)cs2)c1	active: 2.51 µM	
O=C(CN(Cc1ccc2c(c1)OCO2)C(=O)CNS(=O)(=O)c1ccccc1)NCc1ccco1	inactive	
Cc1cc(C)c2cc(CN(CCN3CCCC3)C(=O)Nc3ccc(F)cc3)c(=O)[nH]c2c1	inconclusive [inhibitor, partial curve]	
COc1ccc(Cn2c(-c3ccco3)nc3c(c(=O)c4ccccc4n3C)c2=O)cc1	inconclusive [inhibitor, single point]	
Cc1c(Br)c([N+](=O)[O-])nn1CC(=O)Nc1ccc(C(C)C)cc1	inconclusive [inhibitor, single point]	
CN1CCN(c2ccccc2NC(=O)c2ccc(-c3ccc(Cl)cc3Cl)o2)CC1	active: 10 µM	
Cc1nn2cnc3sc4c(c3c2nc1=O)CCCC4		inactive: -2.37%
COc1ccc(-c2nc(-c3ccccc3)nc(N3CCN(C)CC3)c2C#N)cc1	inconclusive [inhibitor, single point]	
CCCc1ccc(NC(C)C(=O)Nc2ccc(S(=O)(=O)N3CCOCC3)cc2)cc1 (stereo not given)	inconclusive [inhibitor, partial curve]	
NC(=O)[C@H]1CC2(CC(c3cccc(NC(=O)COc4ccc(Cl)cc4)c3)=NO2)CN1C(=O)Cc1ccc([N+](=O)[O-])cc1 (stereo not given in full)	active: 1.58 µM	
Cc1ccnc(NC(=O)CCC(=O)N(CC(=O)NC(C)(C)C)c2ccc(F)c(Cl)c2)c1	inconclusive [inhibitor, single point]	
CCCCn1c(=O)c(C(=O)NC(C)c2ccccc2)c(O)c2ccccc21 (stereo not given)	inconclusive [inhibitor, single point]	
CCNc1ccc(Br)cc(C(=O)/C=C/c2c(Cl)cccc2Cl)c1=O	active: 12.6 µM	
COc1ccc(C(C)(C)C)cc1NC(=O)CCCn1c(=O)oc2ccccc21	inconclusive [inhibitor, single point]	
Fc1ccc(/C=N/NC(=S)Nc2ccc(Cl)cc2Cl)cc1	inconclusive [inhibitor, partial curve]	

Compound	Potency	activity change, negative = inhibition
O=C(CNC(=O)c1ccccc1F)NCC(c1cccs1)N1CCOCC1 (stereo not given)	inconclusive [inhibitor, partial curve, poor fit]	
O=C(NC(=S)Nc1ccc(N2CCCCC2)c(Cl)c1)c1ccc2c(c1)OCCO2	active: 3.55 µM	
Cc1ccc(NC(=O)C(C)N2CCCC2)cc1Cl (stereo not given)		inactive: 1.9%
C=CCn1c(=O)c2ccccc2n2nnc(C(=O)OCC)c12		inactive: 16.4%
COc1ccccc1/C=C/CN1CCC(Oc2cc(C(=O)NC3CC3)ccc2OC)CC1		inactive: 3.36%
CC(=O)NC12CC3CC(C1)CC(C(=O)NCC(=O)Nc1c(C)cc(C)cc1C)(C3)C2		inactive: 9.71%
COc1ccccc1CCNC(=O)C1CCC(=O)N(Cc2ccccc2OC)C1 (stereo not given)		inactive: 22.3%
CN(C)/C=C1\N=C(c2ccccc2)OC1=O	inconclusive [inhibitor, single point]	
COc1ccccc1-c1noc(-c2ccccc2C(=O)NCC2CCCO2)n1 (stereo not given)		inactive: -13.4%
O=C(Cn1cccc1C(=O)c1ccccc1)NCCN1CCCCCC1	inconclusive [inhibitor, single point]	
CCOC(=O)C1=C(CNCCc2ccc(Cl)cc2)NC(=O)NC1c1ccc2c(c1)OCO2 (stereo not given)	inconclusive [inhibitor, single point]	
COc1ccc(S(=O)(=O)NC(CC(=O)NCc2ccccc2OC)c2ccco2)cc1 (stereo not given)	inconclusive [inhibitor, single point]	
O=C(Nc1ccc(Cl)cn1)c1cccc2c(Br)cccc12	inconclusive [inhibitor, partial curve]	
Cc1cc(O)c(-c2cc(O)c(C)cc2O)cc1O	inconclusive [inhibitor, single point]	
COc1cc(/C=C/C=C2/CC/C(=C/C=C/c3ccc(O)c(OC)c3)C2=O)ccc1O	inconclusive [inhibitor, single point]	
CCCCCC[C@@H]([C@@H](C)O)n1cnc2c(N)ncnc21	inconclusive [inhibitor, single point]	
COCc1ccc(-c2c(-c3ccc(OC)cc3)oc(=O)c3cc(OC)c(OC)cc23)cc1	inconclusive [inhibitor, single point]	

From PubChem BioAssay AID651820 (National Center for Advancing Translational Sciences (NCATS), 2012)
